Test results: PMC4336329 (PLoS ONE, 2015)
The whole screen tested about 310,000 compounds, of which about 2,200 (0.71%) showed an effect of 50% or more. Effects have a minus sign here. Some of the results follow.

target: human ether-à-go-go-related gene (hERG) potassium channel (human, UniProt Q12809); assay: primary screen, population patch clamp on CHO cells stably expressing hERG
Sequence (Q12809 whole entry, looked up): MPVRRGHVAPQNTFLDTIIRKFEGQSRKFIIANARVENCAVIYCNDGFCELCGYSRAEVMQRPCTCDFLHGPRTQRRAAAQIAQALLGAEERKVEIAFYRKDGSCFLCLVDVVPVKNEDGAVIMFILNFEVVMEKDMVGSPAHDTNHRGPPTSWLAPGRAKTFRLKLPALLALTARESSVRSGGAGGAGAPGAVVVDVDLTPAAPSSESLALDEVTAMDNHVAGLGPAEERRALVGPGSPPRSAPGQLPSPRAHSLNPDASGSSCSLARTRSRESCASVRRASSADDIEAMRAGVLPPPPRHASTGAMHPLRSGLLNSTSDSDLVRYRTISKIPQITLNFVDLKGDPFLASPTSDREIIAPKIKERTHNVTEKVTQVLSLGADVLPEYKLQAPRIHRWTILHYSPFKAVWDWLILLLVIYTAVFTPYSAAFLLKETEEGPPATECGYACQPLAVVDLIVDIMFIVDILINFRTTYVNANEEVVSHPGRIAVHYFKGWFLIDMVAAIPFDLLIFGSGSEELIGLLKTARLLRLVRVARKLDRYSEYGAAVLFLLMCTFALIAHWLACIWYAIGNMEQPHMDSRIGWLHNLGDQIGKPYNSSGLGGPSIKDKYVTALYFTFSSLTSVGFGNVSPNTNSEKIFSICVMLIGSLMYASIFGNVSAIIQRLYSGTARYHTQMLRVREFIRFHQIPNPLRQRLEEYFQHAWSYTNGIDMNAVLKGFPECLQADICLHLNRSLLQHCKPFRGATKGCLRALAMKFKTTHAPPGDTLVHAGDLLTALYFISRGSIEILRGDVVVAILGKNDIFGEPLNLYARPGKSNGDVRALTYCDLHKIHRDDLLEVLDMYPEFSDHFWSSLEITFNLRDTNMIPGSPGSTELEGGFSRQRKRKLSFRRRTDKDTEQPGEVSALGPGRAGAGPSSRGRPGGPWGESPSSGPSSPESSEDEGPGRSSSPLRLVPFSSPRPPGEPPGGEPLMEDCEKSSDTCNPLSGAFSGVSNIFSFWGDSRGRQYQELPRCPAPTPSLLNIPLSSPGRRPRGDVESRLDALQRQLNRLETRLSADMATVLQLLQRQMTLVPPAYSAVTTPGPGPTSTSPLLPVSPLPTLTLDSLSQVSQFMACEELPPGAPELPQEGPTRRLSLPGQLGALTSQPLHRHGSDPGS

Row | SMILES | hERG current change (%, negative = inhibition) at 1uM
1 | O=C(OCCCc1cc2ccccc2c(=O)o1)c1ccccc1C(F)(F)F | 19.3%
2 | COC(=O)C1C(=O)C2=C(CC1C)NC(C)=C(C(=O)OCc1ccc(OC)cc1)C2c1ccc(C)o1 (centres unmarked) | 0.03%
3 | COc1cccc(-c2nc(CS(=O)(=O)CC(=O)NCCc3ccccc3)c(C)o2)c1 | 7.01%
4 | CCOc1ccc(CCNC(=O)CN2C(=O)COc3ccc(S(=O)(=O)N4CCOCC4)cc32)cc1 | -8.18%
5 | COCCNC(=O)C(c1ccc(F)cc1)N(Cc1ccco1)C(=O)CCC(=O)Nc1ccccn1 (centres unmarked) | 11.6%
6 | O=C1C(=O)c2ccccc2C(O)=C1c1ccccc1F | 10.6%
7 | O=C(Nc1nccs1)c1ccc(-c2ccc(Cl)cc2Cl)o1 | 20.3%
8 | CCN1CCN(C(=O)Nc2ccc(Cc3ccc(NC(=O)N4CCN(CC)CC4)cc3)cc2)CC1 | 11.5%
9 | Nc1ccc2c(c1)COc1ccccc1O2 | -6.6%
10 | CC(=O)c1cnc(Nc2nc(C)c3ccccc3n2)nc1C | 20.4%
11 | CC(NC(=O)Cc1ccccc1)C(=O)O (centres unmarked) | 9.38%
12 | COc1cc(OC)nc(Oc2ccccc2C(=O)Oc2ccc(F)cc2Cl)n1 | 9.4%
13 | CCOc1cc(C(=O)NCCN2CCOCC2)cc(OCC)c1OCC | 9.12%
14 | CCC(C(=O)OCC(=O)c1ccc2c(c1)NC(=O)CO2)c1ccccc1 (centres unmarked) | 10.9%
15 | CCOC(=O)C1=C(Nc2ccccc2)OCC1=O | 13.9%
16 | Cc1ccc(C(=O)Nc2cc(Cl)ccc2OC(=O)c2ccc(C)cc2)cc1 | 7.95%
17 | CCOC(=O)c1c(C)[nH]c(=S)c(C#N)c1-c1ccc(Cl)cc1 | 20.3%
18 | Cn1ccnc1SCCC#N | 5.67%
19 | O=C1NC(=O)/C(=C\c2ccc(OCc3cccc(C(=O)O)c3)c(Cl)c2)N1 | 16.8%

Row | SMILES | hERG current change (%, negative = inhibition) at 1uM
20 | Cc1cc(C)nc(N2Cc3ccccc3C2=N)n1 | 2.4%
21 | CCN(CC)S(=O)(=O)c1ccc(C)c(NC(=O)COc2ccc(Br)cc2Cl)c1 | 14.5%
22 | CC(C)Nc1nc2c(c(=O)n(C)c(=O)n2C)n1C | -1.81%
23 | Cc1cc(C)c(C(=O)C(C)OC(=O)Cn2cnc3c2c(=O)n(C)c(=O)n3C)cc1C (centres unmarked) | 5.21%
24 | Cc1cc(NC(=O)c2cc(-c3cccs3)on2)nn1Cc1ccc(Cl)cc1 | -0.686%
25 | Cc1nc2sc(C(c3ccco3)N3CCC(Cc4ccccc4)CC3)c(O)n2n1 (centres unmarked) | 2.11%
26 | Cc1noc(NS(=O)(=O)c2ccc(NC(=O)c3cnc4scc(C)n4c3=O)cc2)c1C | 9.16%
27 | C=C(C)c1cccc(C(C)(C)NC(=O)NCc2ccc(OC)c(OC)c2)c1 | 13.8%
28 | O=C(O)C1C2CCC(C2)C1C(=O)NCCCn1ccnc1 (centres unmarked) | 3.96%
29 | COc1cc(OC)cc(C(=O)N[C@H](C(=O)NCc2ccco2)C(C)C)c1 | 10.7%
30 | O=C(O)c1cc2nc(-c3ccc(F)cc3)cc(C(F)(F)F)n2n1 | 6.47%
31 | CC(C)c1nnc(NC(=O)C2CC(=O)N(CCc3ccc(F)cc3)C2)s1 (centres unmarked) | 7.69%
32 | Cc1ccc(S(=O)(=O)N(C)CC(=O)Nc2ncccc2C)cc1 | 17.2%
33 | CCC(C)(C)n1nnnc1C(c1ccc2ncccc2c1)N1CCN2CCCC2C1 (centres unmarked) | 8.16%
34 | Cc1ccc(C(=O)C(C)N2C(=O)NC(C)(c3ccccc3)C2=O)cc1 (centres unmarked) | 4.77%
35 | COc1cc(CCC(=O)Nc2cccc(S(=O)(=O)N(C)C)c2)cc(OC)c1OC | 2.25%
36 | COc1ccc(CNC(=O)CN(C)S(=O)(=O)c2ccc(Cl)cc2)cc1 | 9.54%
37 | O=C(CN1C(=O)C(=O)N(C2CCCC2)C1=O)Nc1ccc(OC(F)F)cc1 | 11.8%
38 | CCOC(=O)N1CCN(CC(O)COc2cc(C)cc(C)c2)CC1.Cl (centres unmarked) | 11.5%

Row | SMILES | hERG current change (%, negative = inhibition) at 1uM
39 | O=C(/C=C/c1ccc2ccccc2n1)c1cc(Br)ccc1O | 7.46%
40 | Fc1cccc(F)c1-n1c(CN2CCOCC2)csc1=S | 13.1%
41 | COc1ccc(OC(=O)c2c(C)nn(-c3ccccc3)c2C)cc1 | 11.9%
42 | O=C(O)CNc1nc(Cl)ccc1[N+](=O)[O-] | 12.3%
43 | COc1cccc(-n2c(-c3ccco3)nc3nc4ccccc4nc32)c1 | 8.23%
44 | CSCCC(NC(=O)OCc1ccccc1)C(=O)O (centres unmarked) | 11.2%
45 | CC(=O)C1C(c2cn(-c3ccccc3)nc2-c2cccs2)NC(=O)NC1(O)C(F)(F)F (centres unmarked) | 16%
46 | COc1ccc(Cl)cc1NC(=O)/C=C/C(=O)O | 15%
47 | CC1CCCN(CC(O)COc2ccc3c(c2)OCO3)C1.Cl (centres unmarked) | -0.262%
48 | COC(=O)[C@H](Cc1ccccc1)N(C)S(=O)(=O)c1cccc(S(=O)(=O)N(C)[C@@H](Cc2ccccc2)C(=O)OC)c1 | 13.5%
49 | COc1ccc(NC(=O)CSc2nnc(-c3ccccn3)n2N)cc1 | 17.1%
50 | Cc1ccc(-c2nnn(CC(=O)N(c3ccc(F)cc3)C(C(=O)NC3CCCC3)c3ccncc3)n2)o1 (centres unmarked) | 13.8%
51 | Cc1ccc(NC(=S)NN(C)c2cc(C)nc(C)n2)cc1 | 16.9%
52 | O=C(NC1CC(=O)N(c2ccc(F)cc2)C1)C(=O)c1c[nH]c2ccccc12 (centres unmarked) | -0.55%
53 | COc1cccc(CC(=O)Nc2cc(S(=O)(=O)N3CCOCC3)ccc2N2CCOCC2)c1 | 4.37%
54 | CCOCc1c(C(=O)OCC(=O)/C(C#N)=C(\C)N)oc2ccccc12 | 5.04%
55 | CCN(CC)CCCNC(=O)Cn1ccc2ccccc2c1=O | -1.84%
56 | COc1ccc(CNC(=O)C2CCCC2)cc1 | 13.3%
